According to PMC3983190, “Chemical Derivatives of a Small Molecule Deubiquitinase Inhibitor Have Antiviral Activity against Several RNA Viruses” (PLoS ONE, 2014):

Tested on: rhinovirus (RV39)
Experiment: Rhinovirus infection

## CCC[C@H](NC(=O)/C(C#N)=C/c1cccc(Br)n1)c1ccccc1 [WP1130, reference compound]
  inhibition of rhinovirus (RV39) infection: not inhibited
